{"source": "PubChem BioAssay AID686971", "about": "(National Center for Advancing Translational Sciences (NCATS), 2013)", "note": "Screen size: about 360,000 compounds; about 7,500 (2.1%) were called active. Inconclusive means that the source gave no clear call. Such entries were picked first, then a sample of the others. Calls follow the shape of the dose curve; as a rule, active = well fitted cell-killing curve with a large enough effect; inconclusive = small, poorly fitted or top-dose-only effect, or effect the other way, or another doubt; inactive = no such curve, though single readings can be large or run the other way. Potencies of inconclusive entries are left out as doubtful fits. Potency is read from the fitted curve at half-maximal effect; tags tell the direction and shape of the fitted curve.", "data": [{"experiment": "qHTS for induction of synthetic lethality in tumor cells producing 2HG: qHTS for the HT-1080-IDH1KD cell line;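 as to activity, negative = toxicity: 0% = DMSO wells and -100% = cell-free medium wells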", "conditions": "HT-1080 IDH1 knockdown viability, ATP luminescence, 48 h; activity, negative = toxicity: at 46.1 µM (top of the series) unless noted", "in_short": "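IDH1KD HT-1080 cells, 750/well, RPMI + 5% FBS; compound pinned after 2 h settling; 48 h, 37 °C; CellTiter-Glo luminescence; % activity normalised to DMSO and no-cell wells; curves fitted, classed by r2 and efficacy.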", "values": [{"smiles": "Fc1cccc2sc(Nc3nnc(-c4ccccc4)o3)nc12", "Potency": "inconclusive [cytotoxic, single point]"}, {"smiles": "CCN(CC)c1ccc2cc(S(=O)(=O)c3ccc(C)cc3)c(=O)oc2c1", "activity, negative = toxicity": "inactive: 5.17%"}, {"smiles": "O=C(NCCCN1CCCC1)c1ccc(CSCc2cccc(Cl)c2)o1", "Potency": "inconclusive [cytotoxic, single point]"}, {"smiles": "N#C/C(=C\\c1ccc(O)c(O)c1)C(=O)NCCc1ccccc1", "activity, negative = toxicity": "inactive: 19.7%"}, {"smiles": "COc1ccc(C(=O)c2ccc(N(C)C)cc2)c2ccccc12", "Potency": "active: 2.82 µM"}, {"smiles": "COc1cccc(OCCn2cc(C(C)=O)c3ccccc32)c1", "Potency": "inconclusive [cytotoxic, single point]"}, {"smiles": "CCCc1nc2c3ccccc3ccn2c1Cc1ccccc1", "Potency": "inconclusive [cytotoxic, single point]"}, {"smiles": "CC(=O)c1sc2nsc(SCCN3CCCC3)c2c1N", "activity, negative = toxicity": "inactive: -2.04%"}, {"smiles": "COc1ccc(NC(=O)CN2C(=O)CSc3ncccc32)cc1", "activity, negative = toxicity": "inactive: 2.02%"}, {"smiles": "Cc1noc(C)c1S(=O)(=O)N(C)C[C@H]1Oc2c(NS(=O)(=O)c3cn(C)cn3)cccc2C(=O)N([C@H](C)CO)C[C@@H]1C", "activity, negative = toxicity": "inactive: 2.43%"}, {"smiles": "Cc1ccc(S(=O)(=O)N2CCCCC2)cc1NC(=O)c1nn(C)c(=O)c2ccccc12", "activity, negative = toxicity": "inactive: 9.46%"}, {"smiles": "Cc1ccc(Nc2nnc(SCC(=O)NC3CC3)s2)cc1", "activity, negative = toxicity": "inactive: -2.15%"}, {"smiles": "CCCN1CCC(=NNc2ccc(S(=O)(=O)N(CC)CC)cc2[N+](=O)[O-])CC1", "Potency": "active: 5.8 µM"}, {"smiles": "COc1ccc(/C=C2\\CCCC3C2=NN(C(=O)CSc2ncn[nH]2)C3c2ccc(OC)cc2)cc1", "note": "(stereo not drawn)", "Potency": "inconclusive [cytotoxic, single point]"}, {"smiles": "CN(C)c1ccc(-c2cccc3nccn23)cc1", "Potency": "inconclusive [cytotoxic, partial curve]"}, {"smiles": "Oc1ccc(C2=Nn3c(nnc3-c3ccco3)SC2)cc1O", "Potency": "inconclusive [cytotoxic, full curve]"}, {"smiles": "Cc1ccc(OCC(O)CN2CCN(c3ccccn3)CC2)c(C)c1", "note": "(stereo not drawn)", "activity, negative = toxicity": "inactive: 5.84%"}, {"smiles": "O=C(N/N=C/c1cccc2ccccc12)c1cc2ccccc2o1", "Potency": "inconclusive [cytotoxic, single point]"}, {"smiles": "COc1ccc(Cc2nc3ccc(C(=O)NCCCSC)cc3o2)cc1OC", "activity, negative = toxicity": "inactive: 0.329%"}, {"smiles": "CCCn1cnc2c(SCc3ccccc3F)nc(N)nc21", "Potency": "inconclusive [cytotoxic, partial curve]"}, {"smiles": "Cc1ccc(S(=O)(=O)Nc2ccc3ccccc3c2)cc1", "activity, negative = toxicity": "inactive: -2.51%"}, {"smiles": "CCc1ccccc1NC(=O)c1noc(C(C)C)c1[N+](=O)[O-]", "Potency": "inconclusive [cytotoxic, single point]"}, {"smiles": "CCc1ccccc1NC(=S)/N=C(\\N)Nc1nc(C)c2cc(C)ccc2n1", "activity, negative = toxicity": "inactive: -28.7%"}, {"smiles": "CCOC(=O)c1ccc(NC(=O)NCc2cccnc2)cc1", "Potency": "inconclusive [cytotoxic, single point]"}, {"smiles": "CC(=O)O[C@H]1C[C@@]2(C)[C@@H](C[C@@H](O)[C@H]3[C@@]4(C)CC[C@@H](O)[C@@H](C)[C@@H]4CC[C@@]32C)/C1=C(\\CCC=C(C)C)C(=O)O", "Potency": "inconclusive [cytotoxic, partial curve, poor fit]"}, {"smiles": "Cc1ccc2c(C(=O)CCl)c(C)[nH]c2c1", "Potency": "active: 20.6 µM"}, {"smiles": "CCOC(=O)c1c(C)[nH]c(C(=O)CN2C(=O)NC(C)(c3ccc4ccccc4c3)C2=O)c1C", "note": "(stereo not drawn)", "Potency": "inconclusive [cytotoxic, single point]"}, {"smiles": "COc1cc2c(cc1OC)C(C)N(C(=O)CCc1c[nH]c3ccccc13)CC2", "note": "(stereo not drawn)", "Potency": "inconclusive [cytotoxic, partial curve]"}, {"smiles": "O=C(Cc1cccs1)N1CCN(c2nc(-c3ccc(Cl)cc3)cs2)CC1", "Potency": "inconclusive [cytotoxic, single point]"}, {"smiles": "CC1CC(=O)c2c(cc3c(-c4c(O)cc(O)c5c(O)c6c(cc45)OC(C)CC6=O)c(O)cc(O)c3c2O)O1", "note": "(stereo not drawn)", "Potency": "active: 5.17 µM"}, {"smiles": "COc1cc(/C=C2\\N=C(C)OC2=O)cc(OC)c1OC", "activity, negative = toxicity": "inactive: 11.2%"}, {"smiles": "CCOc1cc(/C=N/NC(=O)N/N=C/c2ccc(O)c(OCC)c2)ccc1O", "Potency": "active: 2.59 µM"}, {"smiles": "CCC(C)c1ccccc1NC(=O)COC(=O)c1ccc2[nH]c3c(c2c1)CCCC3", "note": "(stereo not drawn)", "Potency": "inconclusive [cytotoxic, single point]"}, {"smiles": "CC1CCN(C(=O)c2ccc(S(=O)(=O)N3CCCC3)cc2)CC1", "activity, negative = toxicity": "inactive: 0.574%"}, {"smiles": "COc1ccc(Cl)cc1-c1cc(C(=O)NCC2CCCCC2)[nH]n1", "Potency": "inconclusive [cytotoxic, single point]"}, {"smiles": "COc1ccc(/C(O)=C/c2nc3ccc(C(=O)NCCc4cccc(C)c4)cc3[nH]c2=O)cc1OC", "activity, negative = toxicity": "inactive: 16.5%"}, {"smiles": "CCOC(=O)c1sc(NC(=O)Nc2ccc(Cl)cc2)cc1C", "Potency": "inconclusive [cytotoxic, single point]"}, {"smiles": "CC1=CC(=C(C#N)C#N)C=C(C)N1CCN1CCN(C(=O)Nc2ccc(Cl)c(Cl)c2)CC1", "Potency": "inconclusive [cytotoxic, full curve]"}, {"smiles": "COc1ccc(NC(=O)c2cc([N+](=O)[O-])ccc2N2CCCCC2)cc1OC", "activity, negative = toxicity": "inactive: -26.8%"}, {"smiles": "Cn1cc(CCNCc2cn[nH]c2-c2ccc(-c3ccccc3)cc2)cn1", "Potency": "inconclusive [cytotoxic, single point]"}, {"smiles": "CCOc1ccccc1OCCCCCc1c(C)n[nH]c1C", "Potency": "inconclusive [cytotoxic, single point]"}, {"smiles": "COc1ccc(OCC(=O)N/N=C/C(C)=C/c2ccco2)c(Br)c1", "Potency": "inconclusive [cytotoxic, single point]"}, {"smiles": "CC1(OC(=O)C2CCCC2)C(=O)C=C2C=C(c3ccsc3)N(C(CO)CO)C=C2C1=O", "note": "(stereo not drawn)", "activity, negative = toxicity": "inactive: 4.41%"}, {"smiles": "COc1cc(CNc2ccc(C)c(C)c2)cc(OC)c1OC", "Potency": "active: 3.98 µM"}, {"smiles": "COc1ccc(CNC(=O)CN2CCC(C(=O)c3ccc(OC)cc3)CC2)cc1", "Potency": "inconclusive [cytotoxic, partial curve]"}, {"smiles": "COc1ccc(CCn2c(O)c(C=Nc3cccc(F)c3)c(=O)[nH]c2=O)cc1OC", "activity, negative = toxicity": "inactive: 3.09%"}, {"smiles": "S=C(NCC1CCCO1)N1CCN(c2cccc(Cl)c2)CC1", "note": "(stereo not drawn)", "activity, negative = toxicity": "inactive: 0.375%"}, {"smiles": "COc1ccc(/C=C/C(=O)NC(=S)NNC(=O)c2cc(OC)c(OC)c(OC)c2)cc1", "Potency": "inconclusive [cytotoxic, partial curve]"}]}]}
